We go through seven variants from the GPR68 mutational scans of Howard et al. (2025).

B1: GPR68, Q15743 (parent)
chain: MGNITADNSSMSCTIDHTIHQTLAPVVYVTVLVVGFPANCLSLYFGYLQIKARNELGVYLCNLTVADLFYICSLPFWLQYVLQHDNWSHGDLSCQVCGILLYENIYISVGFLCCISVDRYLAVAHPFRFHQFRTLKAAVGVSVVIWAKELLTSIYFLMHEEVIEDENQHRVCFEHYPIQAWQRAINYYRFLVGFLFPICLLLASYQGILRAVRRSHGTQKSRKDQIQRLVLSTVVIFLACFLPYHVLLLVRSVWEASCDFAKGVFNAYHFSLLLTSFNCVADPVLYCFVSETTHRDLARLRGACLAFLTCSRTGRAREAYPLGAPEASGKSGAQGEEPELLTKLHPAFQTPNSPGSGGFPTGRLA

In series [1] the parent is B1. The series can be described thus: cAMP reporter score (Enrich2 score, wild type = 0); higher = more signal; HEK293T, FACS bins.
The variants in series [2] derive from B1. The series can be described thus: surface expression score (Enrich2 score, wild type = 0); higher = more signal; HEK293T, FACS bins.

Scores with a large standard error are left out. Not listed are two conditions whose scores span a narrow range. Names with del lack the residues named; names with ins carry added residues between the positions named. For some assays here: The concentration of ogerin is not given here.

W77_L78insGS: the cAMP reporter score in series [1] (pH 5.5) is -1.31; in series [1] (pH 6), -0.534; in series [1] (pH 6, modulator: ogerin), -2.14; in series [1] (pH 6.5, modulator: ogerin), -0.904. Further, the surface expression score in series [2] was -2.24.
On to L78_Y80del, for which the cAMP reporter score in series [1] (pH 5.5) is -1.89; in series [1] (pH 6) it was -1.09; in series [1] (pH 6, modulator: ogerin), -2.05; in series [1] (pH 6.5, modulator: ogerin), -0.633. For the same variant, the surface expression score in series [2] was -0.343.
Regarding W77_Q79del, the cAMP reporter score in series [1] (pH 5.5) was -0.447; in series [1] (pH 6) it was -0.822; in series [1] (pH 6, modulator: ogerin), -1.42; in series [1] (pH 6.5, modulator: ogerin), -1.15. Besides, the surface expression score in series [2] came out at 0.266.
For L78del, the cAMP reporter score in series [1] (pH 5.5) is -1.53; in series [1] (pH 6), -1.88; in series [1] (pH 6, modulator: ogerin), -1.85; in series [1] (pH 6.5, modulator: ogerin), -1.12.
In the case of W77del, the cAMP reporter score was -1.73 in series [1] (pH 5.5) and -0.991 in series [1] (pH 6.5, modulator: ogerin). Further, in series [2], the surface expression score was -1.44.
Regarding MGNITADNSSMSCTIDHTIHQTLAPVVYVTVLVVGFPANCLSLYFGYLQIKARNELGVYLCNLTVADLFYICSLPFWLCYVLQHDNWSHGDLSCQVCGILLYENIYISVGFLCCISVDRYLAVAHPFRFHQFRTLKAAVGVSVVIWAKELLTSIYFLMHEEVIEDENQHRVCFEHYPIQAWQRAINYYRFLVGFLFPICLLLASYQGILRAVRRSHGTQKSRKDQIQRLVLSTVVIFLACFLPYHVLLLVRSVWEASCDFAKGVFNAYHFSLLLTSFNCVADPVLYCFVSETTHRDLARLRGACLAFLTCSRTGRAREAYPLGAPEASGKSGAQGEEPELLTKLHPAFQTPNSPGSGGFPTGRLA [Q79C], the cAMP reporter score was -0.881 in series [1] (pH 5.5); -0.681 in series [1] (pH 6); -1.27 in series [1] (pH 6, modulator: ogerin); -1.07 in series [1] (pH 6.5, modulator: ogerin). In addition, the surface expression score in series [2] was -0.497.
In the case of MGNITADNSSMSCTIDHTIHQTLAPVVYVTVLVVGFPANCLSLYFGYLQIKARNELGVYLCNLTVADLFYICSLPFWLAYVLQHDNWSHGDLSCQVCGILLYENIYISVGFLCCISVDRYLAVAHPFRFHQFRTLKAAVGVSVVIWAKELLTSIYFLMHEEVIEDENQHRVCFEHYPIQAWQRAINYYRFLVGFLFPICLLLASYQGILRAVRRSHGTQKSRKDQIQRLVLSTVVIFLACFLPYHVLLLVRSVWEASCDFAKGVFNAYHFSLLLTSFNCVADPVLYCFVSETTHRDLARLRGACLAFLTCSRTGRAREAYPLGAPEASGKSGAQGEEPELLTKLHPAFQTPNSPGSGGFPTGRLA [Q79A], the cAMP reporter score is -0.34 in series [1] (pH 5.5); -0.673 in series [1] (pH 6); -0.984 in series [1] (pH 6, modulator: ogerin); -1.27 in series [1] (pH 6.5, modulator: ogerin). For the same variant, the surface expression score in series [2] came to 0.239.
